SMILES strings stand for the structures.

In this experiment the target is hepatitis C virus RNA dependent polymerase (NS5B) (Hepacivirus hominis (Hepatitis C virus), UniProt P26663). Nature of the experiment: Inhibition of NS5B RNA dependent RNA polymerase activity (SPA, UMP-[5,6 3H] incorporation).
Setting [1] is: IC50 μM, first compound table (printed title TABLE 10; Table 1).

As a reminder, the IC50 is the concentration at which inhibition is half-maximal. Read a low IC50 as greater potency. The compound `CC(C)[C@H](NC(=O)c1ccc2c(c1)nc(-c1ccccn1)n2C1CCCCC1)C(=O)O` [Entry 2006] gave a half-maximal inhibitory concentration (IC50) (IC50 μM, Table 2) of 10 to 25 µM.
`CC(CC(=O)Nc1ccc2[nH]c(C(=O)O)c(-c3ccccc3)c2c1)NC(=O)CC(C)NC(=O)c1ccc2c(c1)nc(-c1ccoc1)n2C1CCCCC1` (stereo not drawn) [Entry 1165] returned a 50% inhibitory concentration (IC50) under setting [1] of 10 to 25 µM.
As to `O=C(NC(Cc1cc(F)c(O)c(F)c1)C(=O)O)c1ccc2c(c1)nc(-c1ccoc1)n2C1CCCCC1` (racemic) [Entry 1153, 2-{[1-(1-Cyclohexyl-2-furan-3-yl-1H-benzimidazol-5-yl)-methanoyl]-amino}-3-(3,5-difluoro-4-hydroxy-phenyl)-propionic Acid], the IC50 under setting [1] lay within 1 to 5 µM.
`COc1ccc(C(NC(=O)c2ccc3c(c2)nc(-c2ccccn2)n3C2CCCCC2)C(=O)O)cc1OC` (stereo not drawn) [Entry 2049] returned an IC50 (IC50 μM, Table 2) of 1 to 5 µM.
As for `COc1ccc([C@H](NC(=O)c2ccc3c(c2)nc(-c2ccccn2)n3C2CCCCC2)C(=O)O)cc1OC` [Entry 2059], the IC50 (IC50 μM, Table 2) was 1 to 5 µM.
`O=C(O)COc1ccccc1CN1CCC(NC(=O)c2ccc3c(c2)nc(-c2ccoc2)n3C2CCCCC2)C1` (stereo not drawn) [Entry 1261] had an IC50 under setting [1] of 10 to 25 µM.
`O=C(N[C@@H](Cc1c[nH]c2ccc(O)cc12)C(=O)O)c1ccc2c(c1)nc(-c1cc3ccccc3[nH]1)n2C1CCCCC1` [Entry 2110] gave a half-inhibitory concentration (IC50) (IC50 μM, Table 2) of 1 to 5 µM.
The compound `O=C(O)C[C@H](Cc1ccc(O)cc1)NC(=O)c1ccc2c(c1)nc(-c1ccoc1)n2C1CCCCC1` [Entry 1230, (S)-3-{[1-(1-Cyclohexyl-2-furan-3-yl-1H-benzimidazol-5-yl)-methanoyl]-amino}-4-(4-hydroxy-phenyl)-butyric Acid] registered a half-inhibitory concentration (IC50) under setting [1] of 1 to 5 µM.
As for `O=C(O)Cn1cnc(C[C@H](NC(=O)c2ccc3c(c2)nc(-c2ccoc2)n3C2CCCCC2)C(=O)O)c1` [Entry 19001], the IC50 (IC50, Table 19) is under 1 µM.
`O=C(O)c1ccc2c(c1)nc(-c1cc(Br)cs1)n2C1CCCCC1` [Entry 7027] registered a half-inhibitory concentration (IC50) (IC50 μM, Table 7) of 5 to 10 µM.
`COc1ccc(C[C@H](NC(=O)c2ccc3c(c2)nc(-c2ccoc2)n3C2CCCCC2)C(=O)O)cc1/C=C/C(=O)O` [Entry 16051, (E)-3-[5-((S)-2-Carboxy-2-{[1-(1-cyclohexyl-2-furan-3-yl-1H-benzimidazol-5-yl)-methanoyl]-amino}-ethyl)-2-methoxy-phenyl]-acrylic Acid] came in with an IC50 (IC50, Table 16) of under 1 µM.
Compound `O=C(O)C(=O)Nc1ccc(C[C@H](NC(=O)c2ccc3c(c2)nc(-c2ccoc2)n3C2CCCCC2)C(=O)O)cc1` [Entry 16009, (S)-3{4-[(1-Carboxymethanoyl)amino]phenyl}-2-{[1-(1-cyclohexyl-2-furan-3-yl-1H-benzoimidazol-5-yl)-methanoyl]-amino}-propionic Acid] displayed a concentration for half-maximal inhibition (IC50) (IC50, Table 16) of under 1 µM.
In turn, `O=C(O)COc1ccc2[nH]cc(C[C@H](NC(=O)c3ccc4c(c3)nc(-c3ccoc3)n4C3CCCCC3)C(=O)O)c2c1` [Entry 11009] returned a half-maximal inhibitory concentration (IC50) (IC50, Table 11) of under 1 µM.
Take `O=C(N[C@@H](Cc1c[nH]c2ccc(O)cc12)C(=O)O)c1ccc2c(n1)nc(-c1ccoc1)n2C1CCCCC1` [Entry 5002, (S)-2-{[1-(1-Cyclohexyl-2-furan-3-yl-1H-imidazo[4,5-b]pyridin-5-yl)-methanoyl]-amino}-3-(5-hydroxy-1H-indol-3-yl)-propionic Acid]: the half-maximal inhibitory concentration (IC50) (IC50 μM, Table 5) was under 1 µM.
`NC(=O)[C@H](Cc1c[nH]c2ccc(NS(=O)(=O)C(F)(F)F)cc12)NC(=O)c1ccc2c(c1)nc(-c1ccoc1)n2C1CCCCC1` [Entry 13007] showed an IC50 (IC50, Table 13) of under 1 µM.
Regarding `NC(=O)[C@H](Cc1c[nH]c2ccc(Nc3c(O)c(=O)c3=O)cc12)NC(=O)c1ccc2c(c1)nc(-c1ccoc1)n2C1CCCCC1` [Entry 13004, 1-Cyclohexyl-2-furan-3-yl-1H-benzimidazole-5-carboxylic Acid {(S)-1-Carbamoyl-2-[5-(2-hydroxy-3,4-dioxo-cyclobut-1-enylamino)-1H-indol-3-yl]-ethyl}-amide], the IC50 (IC50, Table 13) is under 1 µM.
In turn, `O=C(O)COc1ccc2c(c1)c(C[C@H](NC(=O)c1ccc3c(n1)nc(-c1ccoc1)n3C1CCCCC1)C(=O)O)cn2CC(=O)O` [Entry 5003, (S)-3-(5-Carboxymethoxy-1-carboxymethyl-1H-indol-3-yl)-2-{[1-(1-cyclohexyl-2-furan-3-yl-1H-imidazo[4,5-b]pyridin-5-yl)-methanoyl]-amino}-propionic Acid] had an IC50 (IC50 μM, Table 5) of under 1 µM.
Regarding `Cc1cccc(-c2nc3cc(C(=O)N[C@@H](Cc4c[nH]c5ccc(O)cc45)C(=O)O)ccc3n2C2CCCCC2)n1` [Entry 2122], the IC50 (IC50 μM, Table 2) was in the range of 5 to 10 µM.
On to `O=C(O)COc1ccc(C[C@H](NC(=O)c2ccc3c(c2)nc(-c2ccoc2)n3C2CCCCC2)C(=O)O)cc1` [Entry 16011, (S)-3-(4-Carboxymethoxyphenyl)-2-{[1-(1-cyclohexyl-2-furan-3-yl-1H-benzoimidazol-5-yl)methanoyl]amino}propionic Acid], for which the IC50 (IC50, Table 16) was under 1 µM.
`NC(=O)c1ccc2[nH]cc(C[C@H](NC(=O)c3ccc4c(c3)nc(-c3ccoc3)n4C3CCCCC3)C(=O)O)c2c1` [Entry 11019, (S)-3-(5-carbamoyl-1H-indol-3-yl)-2-{[1-(1-cyclohexyl-2-furan-3-yl-1H-benzoimidazol-5-yl)-methanoyl]-amino}-propionic Acid] showed an IC50 (IC50, Table 11) of under 1 µM.
`O=C(NC1CCNCC1)c1ccc2c(c1)nc(-c1ccoc1)n2C1CCCCC1` [Entry 1185] displayed an IC50 under setting [1] of 5 to 10 µM.
In the case of `COc1ccc(C(NC(=O)c2ccc3c(c2)nc(-c2cccn2C)n3C2CCCCC2)C(=O)O)cc1OC` (stereo not drawn) [Entry 2063], under “IC50 μM, Table 2”, the IC50 was 1 to 5 µM.
`CN(C)CCCNC(=O)[C@H](Cc1ccc(O)cc1)NC(=O)c1ccc2c(c1)nc(-c1ccoc1)n2C1CCCCC1` [Entry 16048] displayed an IC50 (IC50, Table 16) of under 1 µM.
In turn, `O=C(N[C@@H](Cc1c[nH]c2ccc(O)cc12)C(=O)O)c1ccc2c(c1)nc(-c1cccc(O)n1)n2C1CCCCC1` [Entry 2120] yielded a concentration for half-maximal inhibition (IC50) (IC50 μM, Table 2) of 1 to 5 µM.
Under setting [1], `O=C(O)CCC(=O)N1CCC(NC(=O)c2ccc3c(c2)nc(-c2ccoc2)n3C2CCCCC2)C1` (stereo not drawn) [Entry 1220] registered an IC50 of 10 to 25 µM.
On to `CC(C)=Cc1nc2cc(C(=O)O)ccc2n1C1CCCCC1` [Entry 7003], for which, under “IC50 μM, Table 7”, the half-inhibitory concentration (IC50) is 10 to 25 µM.
For `O=C(O)c1ccc2c(c1)nc(-c1ccccn1)n2C1CCCC1` [Entry 7025], under “IC50 μM, Table 7”, the IC50 lay within 10 to 25 µM.
Regarding `N#Cc1ccc(-c2nc3cc(C(=O)O)ccc3n2C2CCCCC2)cc1` [Entry 7002], the 50% inhibitory concentration (IC50) (IC50 μM, Table 7) was in the range of 10 to 25 µM.
In the case of `O=C(O)CCCOc1ccc(C[C@H](NC(=O)c2ccc3c(c2)nc(-c2ccoc2)n3C2CCCCC2)C(=O)O)cc1` [Entry 16043], where the note is “IC50, Table 16”, the concentration for half-maximal inhibition (IC50) is under 1 µM.
Compound `O=C(O)c1cccc(CC(NC(=O)c2ccc3c(c2)nc(-c2ccoc2)n3C2CCCCC2)C(=O)O)c1` (racemic) [Entry 16053, 3-(2-Carboxy-2-{[1-(1-cyclohexyl-2-furan-3-yl-1H-benzimidazol-5-yl)methanoyl]-amino}-ethyl)-benzoic Acid] displayed a 50% inhibitory concentration (IC50) (IC50, Table 16) of under 1 µM.
As for `N#C[C@H](Cc1ccc(O)cc1)NC(=O)c1ccc2c(c1)nc(-c1ccoc1)n2C1CCCCC1` [Entry 1170, 1-Cyclohexyl-2-furan-3-yl-1H-benzimidazole-5-carboxylic Acid [(S)-1-Cyano-2-(4-hydroxy-phenyl)-ethyl]-amide], the 50% inhibitory concentration (IC50) under setting [1] was in the range of 10 to 25 µM.
Turning to `NC(=O)[C@H](Cc1c[nH]c2ccc(NC(=O)C(=O)O)cc12)NC(=O)c1ccc2c(c1)nc(-c1ccoc1)n2C1CCCCC1` [Entry 13008, N-[3-((S)-2-Carbamoyl-2-{[1-(1-cyclohexyl-2-furan-3-yl-1H-benzimidazol-5-yl)-methanoyl]-amino}-ethyl)-1H-indol-5-yl]-oxalamic Acid], the 50% inhibitory concentration (IC50) (IC50, Table 13) was under 1 µM.
Compound `COC(=O)[C@H](Cc1cn(C)c2ccc(O)cc12)NC(=O)c1ccc2c(c1)nc(-c1ccoc1)n2C1CCCCC1` [Entry 11028, (S)-2-{[1-(1-Cyclohexyl-2-furan-3-yl-1H-benzimidazol-5-yl)methanoyl]amino}-3-(5-hydroxy-1-methyl-1H-indol-3-yl)-propionic Acid Methyl Ester] yielded an IC50 (IC50, Table 11) of under 1 µM.
For the setting “IC50, Table 21”, `O=C(NC(Cc1ccc2cc(O)ccc2c1)C(=O)O)c1ccc2c(c1)nc(-c1ccoc1)n2C1CCCCC1` (racemic) [Entry 21001, 2-{[1-(1-Cyclohexyl-2-furan-3-yl-1H-benzimidazol-5-yl)-methanoyl]-amino}-3-(6-hydroxy-naphthalen-2-yl)-propionic Acid] came in with a 50% inhibitory concentration (IC50) of under 1 µM.
Turning to `C=C(CC(=O)N[C@H]1CC[C@H](NC(=O)c2ccc3c(c2)nc(-c2ccoc2)n3C2CCCCC2)CC1)C(=O)O` [Entry 1223], under setting [1], the concentration for half-maximal inhibition (IC50) lay within 10 to 25 µM.
`COC(=O)[C@H](Cc1cn(C)c2ccc(OC(C)(C)C(=O)O)cc12)NC(=O)c1ccc2c(c1)nc(-c1ccoc1)n2C1CCCCC1` [Entry 11029, (S)-3-[5-(1-Carboxy-1-methyl-ethoxy)-1-methyl-1H-indol-3-yl]-2-{[1-(1-cyclohexyl-2-furan-3-yl-1H-benzimidazol-5-yl)-methanoyl]-amino}-propionic Acid Methyl Ester] registered a half-maximal inhibitory concentration (IC50) (IC50, Table 11) of under 1 µM.
Regarding `COc1ccc(C(NC(=O)c2ccc3c(c2)nc(C2CCCCC2)n3C2CCCCC2)C(=O)O)cc1OC` (stereo not drawn) [Entry 2027], the IC50 (IC50 μM, Table 2) lay within 10 to 25 µM.
Same read-out and setting: as for `COc1ccc(C(NC(=O)c2ccc3c(c2)nc(-c2ccc[nH]2)n3C2CCCCC2)C(=O)O)cc1OC` (stereo not drawn) [Entry 2065], the figure is 1 to 5 µM.
Compound `CC(CC(=O)Nc1cccc(CC(=O)O)c1)NC(=O)c1ccc2c(c1)nc(-c1ccoc1)n2C1CCCCC1` (stereo not drawn) [Entry 1161] came in with an IC50 under setting [1] of 1 to 5 µM.
For `O=C(O)c1ccc(C(=O)NNC(=O)c2ccc3c(c2)nc(-c2ccoc2)n3C2CCCCC2)cc1` [Entry 1302, 4-{N′-[1-(1-Cyclohexyl-2-furan-3-yl-1H-benzimidazol-5-yl)-methanoyl]-hydrazinocarbonyl}-benzoic Acid], under setting [1], the half-inhibitory concentration (IC50) lay within 1 to 5 µM.
As to `O=C(C[C@H](O)C(=O)O)Nc1ccc(C[C@H](NC(=O)c2ccc3c(c2)nc(-c2ccoc2)n3C2CCCCC2)C(=O)O)cc1` [Entry 16044], the 50% inhibitory concentration (IC50) (IC50, Table 16) was under 1 µM.
`O=C(NCc1ccc(O)c(O)c1)c1ccc2c(c1)nc(-c1ccccn1)n2C1CCCCC1` [Entry 2073] came in with a concentration for half-maximal inhibition (IC50) (IC50 μM, Table 2) of 5 to 10 µM.

The values above are taken from patent US6448281B1 (Boehringer Ingelheim (Canada) Ltd., priority 2000, dated 2002).
